Molecular target: T1, IscU (E. coli), P0ACD4
T1 chain: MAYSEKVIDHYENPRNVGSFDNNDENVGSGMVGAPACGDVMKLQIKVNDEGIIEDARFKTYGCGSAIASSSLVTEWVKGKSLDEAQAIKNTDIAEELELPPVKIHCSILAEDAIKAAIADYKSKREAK
Test: cross-linking
Conditions: remark: other sources report otherwise

percent of total IscU as disulfide-bonded homodimer (after H2O2): 28%
percent of total IscU as disulfide-bonded homodimer (samples with IscS and IscU): 39%
percent of total IscU as disulfide-bonded homodimer (without H2O2): 12%
stoichiometry N: 2
B1: IscU, P0ACD4 1-128 (natural protein)
chain: T1 chain

— publication PMC3511050
